The results in this text go back to PMC10726135.

Some of the results follow. At the low end of the ranking the order means little. Measured with an extract: partners may take part in the binding.

For the assay, the target named is T1, HNF4alpha2 (COS-7 nuclear extract) (UniProt P41235).
T1 sequence: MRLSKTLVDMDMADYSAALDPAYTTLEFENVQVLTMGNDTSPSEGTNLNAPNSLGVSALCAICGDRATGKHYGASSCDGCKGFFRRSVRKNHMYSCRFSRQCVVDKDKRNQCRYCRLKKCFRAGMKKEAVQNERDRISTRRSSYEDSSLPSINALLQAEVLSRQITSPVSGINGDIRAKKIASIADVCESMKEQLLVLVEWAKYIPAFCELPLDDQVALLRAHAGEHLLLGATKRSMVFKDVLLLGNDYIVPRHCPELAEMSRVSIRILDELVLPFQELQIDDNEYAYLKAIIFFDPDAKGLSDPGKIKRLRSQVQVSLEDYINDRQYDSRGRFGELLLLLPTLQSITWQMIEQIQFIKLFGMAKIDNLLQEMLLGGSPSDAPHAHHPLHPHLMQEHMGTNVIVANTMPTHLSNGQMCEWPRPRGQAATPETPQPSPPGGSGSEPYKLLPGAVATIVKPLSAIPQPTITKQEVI
As to the kind of experiment: protein-binding microarray. Conditions: COS-7 nuclear extract on double-stranded Agilent 4x180k PBM; binding buffer, salt, pH and temperature not given; high values mean tight binding; double strand, one strand shown; sequences stand for … in …GCCTAGGGAGATTAGAGTATCGGTCGA
Regarding AAGTACAGAGATGGCACAGAGGAGGGACGA, the binding signal (log2 normalized intensity) is -1.14.

Take CTGGGTATTTCAAGAATGCAAAGCCCTGGC: the binding signal (log2 normalized intensity) is -1.05. To TTACTTTTGTACACACAGCACTGCAAACAG belongs -1.24; to ATCAATCAATTTACCTCTGCTCCCCCTGCC, 4.1; to GGCAAAGGGCATGGGCAGCTTTGAAGACTC, -1.23. On to GGGCACCGCCTCCACACCCCAGCCTGCCCT, for which the binding signal (log2 normalized intensity) came to 3.1. Regarding AACTGAGGAGGACATACTCCTACCACCAAA, the binding signal (log2 normalized intensity) was -1.22. The result for GTGTCCCTCTTATACTCTCTCTCTCTCGTT reads 0.839; that for GATGGAGATGGCCTGGAGGTACCTAGGGGA, -1.26.

Take AAAGGACATTGTCCATCACCTGGCTCTGAA: the binding signal (log2 normalized intensity) was -1.01. To CCTGTCAGTTTATTTACTGTCCTCAAACTG belongs 1.46. The result for GCCTGGGGTAAAACCAAACTGCAGCTGCTG reads -1.05; that for TCCTAGGGTTAAAGTCTACAACCAGAACTT, 2.8. The result for CTTTGCTCTCTGAAATGAAGGTCAGCAAAT reads 1.03; that for AAGTTCAGTGAGATTAGGAAGTGTGCACAA, 1.17. In the case of AGCCCCTTTGTCCATTATCTCACTTATTTG, the binding signal (log2 normalized intensity) turned out to be 1.09. With TAAACCAGCCTAACAGGATTTTTGCTGAAG, the binding signal (log2 normalized intensity) was -1.14.

Consider GAACCAAGATCTGTGAAAGAAAAGTACTTT, for which the binding signal (log2 normalized intensity) came to 1.12.

As for AGAAGCCTCTGGACAAGGGAAGCGTCAATG, the binding signal (log2 normalized intensity) is -1.11. To ACTGAGATGGGAGCAGTGCTCAGATAAGAT belongs -0.87. To GGCTGATAAGACACATTCCATGCTTATCAG belongs -0.713; to CCTTCCGACCACTGGCTGAACAGGGTCAGT, 1.99; to CGCTGGACTCTGCTCCTAAGGCAGGATTGG, 0.801. To AGTTAACTCACACACCCCAAAAGGTCAATC belongs 3.99; to ATATGAACTTTGGAAATGCAAACACCTACA, -1.13; to CACTTACAAGTGTACAAAGGTCACTTCTGT, 6.32. For the sequence TGGCACCTGAAGCTGCCCTTTGCACATGCC, the binding signal (log2 normalized intensity) was 4.08. To TGAGGTCGGGGCCTGGTCTGCACTCCAGGA belongs -1.15.

Take CAAGTCCAGCGAGGTTATTTCACCCCAGCA: the binding signal (log2 normalized intensity) was determined as 2.46. To TACATGGCCTGCATGACTACATTCTTTGAA belongs -0.722; to GACCCCCTACATAGAGAGCAGTCTTGAGCG, 1.73; to TGTATTTCGGGGCACTGCTCCCTGCCCCTA, 2.42. The result for AACTCTATCATACTCAGCTAATCTAGAGAC reads -0.844. As to CAAGGTGGTGAAGATGTCCTGTAGAAAGCG, the binding signal (log2 normalized intensity) is -1.12. To GTTTTGTAAACTCCCTTTGATGCGGTCAGA belongs 1.36; to TCCTTATCCTCATTGTGTGCAGACCTTCTC, 1.39; to GATAACACTGATAACATGAGGTAGAGGGAC, -1.26.

CCTTGGATTAAAGGAGAACTGAGTAGGAGA: the binding signal (log2 normalized intensity) is -0.974. As for GTCTTCCTCAAATTACAAAAGGAGTTGGGG, the binding signal (log2 normalized intensity) is -1.08. To TCAAGAGAAATGTTATCTCAGTAGACTAAC belongs -1.08; to CATTAAGCTTAGCGTTATCAAACCAAATAT, -0.0208. The result for TGCAAGTTACCTTGGGGTCAAAGTACATCC reads 8.65.

Regarding GAGACAACTGCAACAGGAGGACCTCTGGAT, the binding signal (log2 normalized intensity) is -1.05. For GTATGGACTTTCTGATGTCAGAAAATGCAA, the binding signal (log2 normalized intensity) is 0.478. For CTCAAGAATTGTCTAACCGCAGCAAGACAC, the binding signal (log2 normalized intensity) is -1.14.

On to CTTTCAAGGCAGATTTCTGTCTTTGATCTG, for which the binding signal (log2 normalized intensity) was 1.02.

In the case of CTGCTTTGTGGCATCAGGGTCCACAAGGGT, the binding signal (log2 normalized intensity) stood at 2.4. The result for TCAAGATGTCTCAAGATATCTATATGTTTA reads 0.723. The result for AGTTCAAACTCTGAAAGCACTAAGTTACCT reads -1.16. For GGGCTAGTCCCTGAGTATTATCTTTTTAAT, the binding signal (log2 normalized intensity) came to 0.626.

On to CACAAAAAGGCTGTCACACTTGCCCTTTGC, for which the binding signal (log2 normalized intensity) is 4.82. On to CCATGACTGCTCCCTCTGCTCCCCTGGCCT, for which the binding signal (log2 normalized intensity) amounted to 2.57.

On to GAGGGGGGAGGGTCGGCAACGGTGATTACC, for which the binding signal (log2 normalized intensity) is -0.962. To GGGCCTGCGAGGTTACAGGGTTCAACACGT belongs 2.06. To ATGGGAACTTCTCACCTTCAGATGCCATGT belongs 1.52; to CTCTGCCCCTCATCGAGGCCATCCCAGTTA, 3.46; to TGACATTGGTGGAATCTGAACTTTTGGCTC, 2.03.

For the sequence GCCAGGACAAAGGTCCTGTGGCCTGGGGAG, the binding signal (log2 normalized intensity) turned out to be 0.557. AGGGACTCAGGCACACAAAAAAAACCACTC: the binding signal (log2 normalized intensity) is -1.21. To TTGTAAAGGGTAATCTGCTTTTCTCGAAGC belongs -1.02; to CTGACCCCAAGTAATAGCCGTTTCTGTCCA, 1.4; to CCACGGAGCACATTCCATGCCCGGGTTGCT, -1.07. To GAAATCATCTCCATGCCGACTCCGAACTAT belongs -1.06; to CTATGTTTAATGTATAAACCCTGAGGGTCA, 2.26. To ATGGCTAGAAAGTCAGTGAAGGAGCTGACT belongs -0.475. On to GCCAAGCTCTGGGCTAGTCCCTGAGTATTA, for which the binding signal (log2 normalized intensity) was -0.902.

GGGTTAGGCCTGGAACCTGTCTGACAGGAT: the binding signal (log2 normalized intensity) was -0.206.

In the case of CTTGTCACTTTCCCTTTGTCTCCAGGCCCT, the binding signal (log2 normalized intensity) is 0.67. To TTTGCTTTTCCCTGCTGCTGGCTGGCGGCC belongs -0.985; to TTTGGGTAATAACATGTAATTGCATGACCA, 1.72. To AGCCTTTCCTCAGATGGAATGTGTGCCCGT belongs 1.76; to CGTCACCTTTATCGAACCTATTGTTTAATC, 1.76. Regarding TTAGGATAGGGTCAGTCTTTGTTCTAGTAA, the binding signal (log2 normalized intensity) was determined as 1.55.
